# Where “and” joins values, the source holds several entries; their conditions need not be identical. Equal entries are not always repeated. Inconclusive results, whose numbers are uncertain, are shown with a selection of clear calls. Potencies of inconclusive entries are doubtful fits and often do not repeat. Calls of active or inactive are those of the source. Unless noted, calls come from the whole dose curve; as a rule, active = well fitted curve in the direction sought with a large enough effect in the repeat runs; inconclusive = weak or mixed curves; inactive = no such curve, though single readings can be large; an effect the other way counts as inactive or inconclusive.
# Tests used:
# [1] = qHTS assay to identify small molecule antagonists of the retinoid-related orphan receptor gamma (ROR-gamma) signaling pathway - cell viability counter screen (AID 1159520); details: Tet-on RORgamma CHO cells viability, ATP luminescence, 16 h; series mostly up to 92.4 µM; note: nearly all actives have a fitted effect of over 50% in size; for activity, negative = cytotoxicity: % is set by controls: 0 for no effect and ±100 for the full control effect
# How it was run: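 Tet-on ROR gamma CHO cells were given compounds for 2 hr, then doxycycline hyclate at 1 uM final, and incubated 16 hr at 37 C. Viability was measured as ATP content by CellTiter-Glo luminescence.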
# [2] = molecular target: Nuclear receptor ROR-gamma (Homo sapiens) (UniProt P51449); test: qHTS assay to identify small molecule antagonists of the retinoid-related orphan receptor gamma (ROR-gamma) signaling pathway (AID 1159521; note: nearly all actives have a fitted effect of over 50% in size); details: Tet-on RORgamma CHO cells, RORE-luciferase, 16 h; series mostly up to 92.4 µM
# How it was run: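 Luminescence readout (ONE-Glo, 30 min RT) after 16 h doxycycline induction; loss of signal scored as antagonism. CHO cells with TET-inducible RORγ and RORE-LUC reporter; compounds added 2 h before 1 uM final doxycycline.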
# [3] = qHTS assay to identify small molecule agonists of the AP-1 signaling pathway (AID 1159526; calls by dose curve); details: ME-180 (cervical carcinoma) AP-1-bla reporter, beta-lactamase FRET ratio, 5 h; activation: at 76.8 µM (top of the series) unless noted
# [4] = qHTS assay to identify small molecule agonists of the RXR signaling pathway - cell viability counter screen (AID 1159529); details: RXR-alpha-bla HEK293T viability, CellTiter-Glo, 16 h; series mostly up to 76.8 µM; note: nearly all actives have a fitted effect of over 50% in size
# How it was run: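 Luminescence from CellTiter-Glo (30 min, RT) measured viability in the same wells as the beta-lactamase reporter readout. Cells: GeneBLAzer RXR-alpha HEK 293T, 2% charcoal-stripped FBS. Compound exposure 16 hr, 37 C.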
# [5] = molecular target: Retinoic acid receptor RXR-alpha (Homo sapiens) (UniProt P19793); test: qHTS assay to identify small molecule agonists of the RXR signaling pathway (AID 1159527; calls by dose curve; note: nearly all actives have a fitted effect of over 35% in size; for activation: % is set by controls: 0 for no effect and ±100 for the full control effect); details: HEK293T RXRa-UAS-bla, beta-lactamase ratio, 16 h; activation: at 76.8 µM (top of the series) unless noted
# How it was run: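 Agonist mode; 9-cis retinoic acid positive control. HEK 293T UAS-bla reporter cells, 2% charcoal-stripped FBS, 16 hr compound exposure at 37 C/5% CO2. LiveBLAzer B/G FRET substrate 2 hr RT; ex 405, em 460/530 nm.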
# [6] = qHTS assay to identify small molecule antagonists of the retinoid acid receptor (RAR) signaling pathway - cell viability counter screen (AID 1159551); details: C3RL4 cells viability, ATP luminescence (CellTiter-Glo), 6 h; series mostly up to 92.4 µM; note: nearly all actives have a fitted effect of over 35% in size
# How it was run: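 Retinol-stimulated (1 uM final) C3RL4 cells, compound 6 h, 37 C; readout CellTiter-Glo luminescence (ATP) after 30 min RT incubation.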
# Potency is the fitted concentration of half-maximal effect; tags give direction and shape of the fitted curve or compound fluorescence and quenching.
# UniProt P19793, sequence (P19793 whole entry, looked up): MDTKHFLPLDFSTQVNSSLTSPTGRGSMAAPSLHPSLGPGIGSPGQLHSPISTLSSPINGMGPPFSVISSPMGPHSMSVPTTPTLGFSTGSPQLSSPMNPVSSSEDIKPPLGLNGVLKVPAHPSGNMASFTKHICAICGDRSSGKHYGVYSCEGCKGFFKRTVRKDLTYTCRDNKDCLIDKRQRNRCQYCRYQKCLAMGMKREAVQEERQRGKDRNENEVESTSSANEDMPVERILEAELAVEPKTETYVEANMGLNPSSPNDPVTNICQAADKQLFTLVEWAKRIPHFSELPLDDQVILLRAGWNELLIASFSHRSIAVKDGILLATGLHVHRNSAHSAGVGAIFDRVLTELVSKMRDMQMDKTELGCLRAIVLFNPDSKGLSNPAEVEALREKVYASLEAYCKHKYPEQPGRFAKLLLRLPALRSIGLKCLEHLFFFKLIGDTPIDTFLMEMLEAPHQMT
structure (smiles),measurement,setting,value
Nc1ccc([N+](=O)[O-])cc1[N+](=O)[O-],Potency,[1],"inconclusive: 6.68 µM [cytotoxic, partial curve, poor fit]"
Oc1ccc(Cl)c(Cl)c1,Potency,[1],"inconclusive: 19 µM [cytotoxic, partial curve]"
Cc1ccc2c(c1)C1CN(C)CCC1N2 (centres undefined),"activity, negative = cytotoxicity",[1],inactive: 3.75% [at 19 µM]
CC(C)(C)c1cc([N+](=O)[O-])cc(C(C)(C)C)c1O,Potency,[1],"inconclusive: 15.4 µM [cytotoxic, full curve]"
same,Potency,[2],"inconclusive: 4.86 µM [inhibitor, full curve, poor fit]"
same,Potency,[3],"inconclusive: 49 µM [falling, single point]"
same,Potency,[4],"inconclusive: 1.1 µM [cytotoxic, full curve, poor fit]"
CCOP(=S)(OCC)SCn1c(=O)oc2cc(Cl)ccc21,Potency,[1],"inconclusive: 73.6 µM [cytotoxic, partial curve, poor fit]"
same,Potency,[2],"inconclusive: 61.1 µM [inhibitor, partial curve, poor fit]"
same,Potency,[3],"inconclusive: 18.6 µM [activator, partial curve, poor fit] and inconclusive: 49 µM [activator, partial curve, poor fit]"
same,Potency,[5],inconclusive: 23.5 µM
same,activation,[5],inconclusive: -31.6%
same,Potency,[4],"inconclusive: 58.9 µM [cytotoxic, single point]"
CCN(CC)C1CCCCC1,Potency,[1],inactive
C[CH2][Hg][N]1C(=O)C2C(C1=O)C1(Cl)C(Cl)=C(Cl)C2(Cl)C1(Cl)Cl (centres undefined),Potency,[1],active: 3.66 µM
same,Potency,[2],active: 2.31 µM
same,Potency,[3],"inconclusive: 11.7 µM [falling, partial curve]"
same,Potency,[5],inconclusive: 1.47 µM
same,Potency,[6],"inconclusive: 16.4 µM [cytotoxic, single point]"

# Reference: PubChem BioAssay (Tox21)
